By EC50 is commonly meant the midpoint of the concentration-response curve. A low value points to an effect from little substance.

The target of assay [1] is human insulin (human, UniProt P01308 partial chain; P01308 partial chain, limits assumed). In words: ELISA, antigen coated on the plate. As for the experimental part: (§1) The half-maximal binding (EC₅₀) was calculated by fitting the data to the Langmuir adsorption isotherm.
(§2) ELISA was performed as described previously (Chen et al., 2008, supra). Bound Fabs and eAds were detected by HRP-conjugated mouse anti-FLAG tag antibody. The antibody-Fc fusion proteins binding to IGF-II directly coated on 96-well plates were detected by HRP-conjugated goat anti-human IgG (Fc-specific) antibody. […] The half-maximal binding (EC₅₀) was calculated by fitting the data to the Langmuir adsorption isotherm.
(ELISA stands for enzyme-linked immunosorbent assay.)

The target of assay [2] is T1, human IGF-II (human, UniProt P01344 partial chain).
T1 construct: mature; It was biotinylated for the flow cytometry assays; also called hIGF-II; insulin-like growth factor II
In words: ELISA, hIGF-II coated on the plate. As for the experimental part: as §1, §2

T1 sequence (P01344 25-91): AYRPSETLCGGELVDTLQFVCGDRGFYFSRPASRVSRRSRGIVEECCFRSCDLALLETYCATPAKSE
Chain of UniProt P01308 (P01308 25-54 limits assumed, chain 1 of 2): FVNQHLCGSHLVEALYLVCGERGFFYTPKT
Chain of UniProt P01308 (P01308 90-110 limits assumed, chain 2 of 2): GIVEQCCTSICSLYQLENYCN

B1: m630.3Fc (Fc fusion)
chain: QVQLVQSGGGLVQPGGSLRLSCAASSFDFDYYEMSWVRQAPGQRLEWVAYISKSGGTKMYADSVKGRFTISRDNSKNTLYLQMNTLRAEDTAMYYCAKDRATCRGGRCYSFYYGMDVWGQGTLVTVSSGP[letters of human IgG1 Fc left out]
notes: eAd m630.3 joined to the N terminus of human IgG1 Fc through a hinge linker; It was cloned into pSecTagB-Fc and produced in 293 free style cells; also called eAd-Fc (m630.3Fc)
On to B1, for which the binding result in assay [1] is reported as “no binding”. Moreover, in assay [2], a half-maximal effect (EC50) was put at 600 pM and the “fold lower EC50 than IgG1 m610.27” value was around 6 fold.

(Values after patent publication US20140271646A1 (UNITED STATES OF AMERICA AS REPRESENTED BY THE SECRETARY …, published 2014).)
